{"source": "PubChem BioAssay AID493208", "about": "(National Center for Advancing Translational Sciences (NCATS), 2011)", "note": "In all, about 44,000 compounds went through this assay and about 340 (0.77%) were called active. Another 5% or so got no clear call; they are omitted. Calls come from the whole dose curve; as a rule, active = well fitted inhibition curve with a large enough effect; inconclusive = small, poorly fitted or top-dose-only effect; inactive = flat fitted curve, though single readings scatter. The list shows a part of the results.", "data": [{"assay": "Acumen qHTS Assay for Inhibitors of the mTORC1 Signaling Pathway in MEF (Tsc2-/-, p53-/-) Cells: Sytravon;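 note: plate controls were DMSO for no effect and rapamycin for full effect; nearly all actives have a fitted effect of over 50% in size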", "settings": "phospho-rpS6 immunofluorescence/PI, 24 h; series mostly up to 38.3 µM; activity change, negative = inhibition: at the top concentration", "summary_of_the_method": "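Immunofluorescence of rpS6 phosphorylation in Tsc2-/-, p53-/- MEFs after 24 h compound exposure, normalized to propidium iodide signal. Activity is expressed as % positive cells, thresholded with 7.5 nM rapamycin.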", "values": [{"smiles": "O=C(Nc1ccc2c(c1)CCCN2C(=O)c1cccs1)c1ccccc1", "activity change, negative = inhibition": "inactive: 0%"}, {"smiles": "O=C(Cn1c(=O)n(Cc2ccccc2)c(=O)c2sc3ccccc3c21)Nc1ccccc1F", "activity change, negative = inhibition": "inactive: 4.84%"}, {"smiles": "O=C(NC1CCCc2ccccc21)c1ccc2c(c1)sc1nc(-c3ccccc3)cn12", "note": "(configuration not stated)", "activity change, negative = inhibition": "inactive: 8.04%"}, {"smiles": "COc1cccc(Oc2nc(C)nc3c2oc2ccccc23)c1", "activity change, negative = inhibition": "inactive: -11.3%"}, {"smiles": "Cc1c(C(=O)NCc2cccc(Cl)c2)sc2nc[nH]c(=O)c12", "activity change, negative = inhibition": "inactive: -14.4%"}, {"smiles": "CCOc1ccccc1NC(=O)C1CCN(S(=O)(=O)c2cccs2)CC1", "activity change, negative = inhibition": "inactive: -2.13%"}, {"smiles": "CC(CNC(=O)CCc1cn(Cc2ccccc2Cl)c2ccccc12)c1ccccc1", "note": "(configuration not stated)", "activity change, negative = inhibition": "inactive: -14.4%"}, {"smiles": "CCOc1ccc(NC(=O)Cn2ccn3nc(-c4ccc(OC)c(OC)c4)cc3c2=O)cc1", "activity change, negative = inhibition": "inactive: 0%"}, {"smiles": "Cc1cc(C)cc(NC(=O)Nc2ccc3nc(N4CCN(C)CC4)cc(C)c3c2)c1", "activity change, negative = inhibition": "inactive: 3.05%"}, {"smiles": "CCCS(=O)(=O)c1nc(S(=O)(=O)c2ccc(C)cc2)c(NCc2ccccc2Cl)s1", "activity change, negative = inhibition": "inactive: -6.28%"}, {"smiles": "Cc1nc(N2CCCC2)c2c(C(=O)Nc3cccc(Cl)c3)c(C)oc2n1", "activity change, negative = inhibition": "inactive: 1.88%"}, {"smiles": "CC1(C)CC(=O)c2cc(C#N)c(=O)n(-c3ccc(Cl)cc3)c2C1", "activity change, negative = inhibition": "inactive: 1.19%"}, {"smiles": "O=C(O)CCC(=O)Nc1sc2c(c1C(=O)Nc1ccccc1)CCCCC2", "activity change, negative = inhibition": "inactive: 6.91%"}, {"smiles": "COc1ccc(NC(=O)Cn2cc(C(=O)c3ccccc3)c(=O)c3cc(OC)ccc32)c(OC)c1", "activity change, negative = inhibition": "inactive: 2.58%"}, {"smiles": "CCc1ccc(NC(=O)c2ccc(F)c(S(=O)(=O)N3CCN(c4ccc(OC)cc4)CC3)c2)cc1", "activity change, negative = inhibition": "inactive: -12%"}, {"smiles": "Cc1ccsc1CN(C(=O)c1ccc(OCC(C)C)cc1)C1CCS(=O)(=O)C1", "note": "(configuration not stated)", "activity change, negative = inhibition": "inactive: 5.68%"}, {"smiles": "CCOC(=O)c1cccc(NS(=O)(=O)c2cc(-c3cnc(C4CC4)o3)ccc2C)c1", "activity change, negative = inhibition": "inactive: 0%"}, {"smiles": "Cc1c(C(=O)OC(C)C)sc(NC(=O)C2c3ccccc3Oc3ccccc32)c1C(=O)OC(C)C", "activity change, negative = inhibition": "inactive: -2.47%"}, {"smiles": "Cc1ccc(-n2c3nc(=O)[nH]c(=O)c-3cc3c(C)nn(-c4ccccc4)c32)cc1C", "activity change, negative = inhibition": "inactive: -0.115%"}, {"smiles": "CCOC(=O)c1c(S(=O)(=O)N2CCCC(C(=O)Nc3ccc(C)cn3)C2)c(C)n(C)c1C", "note": "(configuration not stated)", "activity change, negative = inhibition": "inactive: 0.543%"}, {"smiles": "Cc1cccc(NC(=O)CSc2nc3ccccc3nc2N2CCOCC2)c1C", "activity change, negative = inhibition": "inactive: -7.58%"}, {"smiles": "CC(=O)c1ccc(N2CCN(C(=O)CCCCn3c(=O)[nH]c4ccsc4c3=O)CC2)cc1", "activity change, negative = inhibition": "inactive: -0.0571%"}, {"smiles": "CCOc1ccc(CNS(=O)(=O)c2cc3c(cc2C)NC(=O)CO3)cc1", "activity change, negative = inhibition": "inactive: -10.6%"}, {"smiles": "O=C(Nc1cccc(C(F)(F)F)c1)c1cc(-c2ccc3c(c2)OCCO3)on1", "activity change, negative = inhibition": "inactive: -12.6%"}, {"smiles": "CCSc1nnc(NC(=O)c2cc(=O)c3cc(C)c(C)cc3o2)s1", "activity change, negative = inhibition": "inactive: 1.19%"}, {"smiles": "COc1ccc(Cn2c(=O)c3cccnc3n(CC(=O)Nc3c(C)cc(C)cc3C)c2=O)cc1", "activity change, negative = inhibition": "inactive: 0.473%"}, {"smiles": "CCc1cnc2c(c1SCC(=O)c1ccc(Cl)cc1)c(=O)n(C)c(=O)n2C", "activity change, negative = inhibition": "inactive: 4.04%"}, {"smiles": "CCOC(=O)c1c(-c2ccc(OC)cc2)oc2ccc(OCc3ccc(Br)cc3)cc12", "activity change, negative = inhibition": "inactive: -16.7%"}, {"smiles": "O=C(NCCc1ccc(F)cc1)C(=O)NCC(c1ccco1)S(=O)(=O)c1cccs1", "note": "(configuration not stated)", "activity change, negative = inhibition": "inactive: -0.0121%"}, {"smiles": "COc1ccc(S(=O)(=O)n2nc(C)c(S(=O)(=O)N3CCC(C)CC3)c2C)cc1OC", "activity change, negative = inhibition": "inactive: 1.73%"}, {"smiles": "Cc1ccc(N(CC(=O)Nc2ccc(Br)cc2)S(=O)(=O)c2cccs2)cc1", "activity change, negative = inhibition": "inactive: -22.4%"}, {"smiles": "CCc1ccccc1NC(=O)c1ccc2nc(C(C)C)oc2c1", "activity change, negative = inhibition": "inactive: -9.4%"}, {"smiles": "O=C(Nc1nnc2n1CCS2)c1ccccc1C(F)(F)F", "activity change, negative = inhibition": "inactive: -1.18%"}, {"smiles": "CC(C)CCNC(=O)CCC(=O)NNc1nc2ccccc2c2nc(-c3ccccc3)nn12", "activity change, negative = inhibition": "inactive: -4.27%"}, {"smiles": "COc1cc(OC)cc(C(=O)N2CC(=O)Nc3ccc(Cl)cc3C2c2ccccc2)c1", "note": "(configuration not stated)", "activity change, negative = inhibition": "inactive: -4.02%"}, {"smiles": "COc1ccc(C2=C(C)C(N3CCC(C(=O)Nc4ccc(F)cc4C)CC3)=NS2(=O)=O)cc1", "activity change, negative = inhibition": "inactive: -8.27%"}, {"smiles": "O=C(Nc1ccc(Cl)c(C(F)(F)F)c1)C(Cc1ccccc1)NS(=O)(=O)c1ccc(Br)s1", "note": "(configuration not stated)", "activity change, negative = inhibition": "inactive: 2.64%"}, {"smiles": "Brc1cccc(-c2cnn3c(-c4ccccc4)cc(-c4ccccc4)nc23)c1", "activity change, negative = inhibition": "inactive: 8.2%"}, {"smiles": "CCOc1ccc(NC(=O)C(=O)NCc2ccco2)cc1", "activity change, negative = inhibition": "inactive: 9.1%"}, {"smiles": "COc1cccc(C(=O)NCC(c2ccc3c(c2)OCO3)N2CCOCC2)c1", "note": "(configuration not stated)", "activity change, negative = inhibition": "inactive: 2.6%"}, {"smiles": "O=C(NCc1ccccc1)C(=O)NCC(c1cccs1)S(=O)(=O)c1ccccc1", "note": "(configuration not stated)", "activity change, negative = inhibition": "inactive: -1.6%"}, {"smiles": "CC1(C)CC(=O)c2cc(C(=O)Nc3ccccc3Cl)c(=O)n(-c3ccc(Cl)cc3)c2C1", "activity change, negative = inhibition": "inactive: -11.1%"}, {"smiles": "COc1ccc2cc3cc(C(=O)NCc4ccccc4OC)oc3nc2c1", "activity change, negative = inhibition": "inactive: 5.07%"}, {"smiles": "Cc1cccc(N2CCN(S(=O)(=O)c3csc(C(N)=O)c3)CC2)c1C", "activity change, negative = inhibition": "inactive: -22.5%"}, {"smiles": "Cc1cccc(NC(=O)CSc2nc(-c3ccco3)cc(C(F)(F)F)n2)c1C", "activity change, negative = inhibition": "inactive: -17.4%"}, {"smiles": "Cc1ccc(-c2nc3ncccc3o2)cc1NC(=O)c1ccc(-c2ccc(Cl)cc2)o1", "activity change, negative = inhibition": "inactive: -1.85%"}, {"smiles": "Cc1ccc(N(Cc2cccs2)C(=O)c2ccccc2Cl)cc1", "activity change, negative = inhibition": "inactive: -1.08%"}, {"smiles": "CCOC(=O)c1ccc(NC(=O)c2cc3sccc3n2Cc2ccc(Cl)cc2)cc1", "activity change, negative = inhibition": "inactive: -12.3%"}, {"smiles": "O=C(Nc1nnc2n1CCS2)c1ccc(F)cc1F", "activity change, negative = inhibition": "inactive: -3.94%"}, {"smiles": "O=C(c1ccccc1Cl)N1CCCCC1CCN1CCCCC1", "note": "(configuration not stated)", "activity change, negative = inhibition": "inactive: -2.83%"}, {"smiles": "COc1ccc(NC(=O)C(C)N(c2ccccc2)S(C)(=O)=O)cc1", "note": "(configuration not stated)", "activity change, negative = inhibition": "inactive: -16.7%"}, {"smiles": "COc1ccc(C)cc1NC(=O)Cn1c(=O)n(Cc2nc(C)no2)c(=O)c2ccccc21", "activity change, negative = inhibition": "inactive: -7.16%"}, {"smiles": "CCOc1ccccc1NC(=O)C(CC)Sc1nc2ccncc2[nH]1", "note": "(configuration not stated)", "activity change, negative = inhibition": "inactive: -8.5%"}, {"smiles": "COc1ccc(CCNC(=O)c2ccc(Cn3c(=O)c4ccccc4n(Cc4cccc(Cl)c4)c3=O)cc2)cc1OC", "activity change, negative = inhibition": "inactive: 12.1%"}, {"smiles": "CC(C)c1ccc(NS(=O)(=O)c2ccc3nc(-c4ccccc4)[nH]c3c2)cc1", "activity change, negative = inhibition": "inactive: -1.33%"}, {"smiles": "CCOc1ccc(CN2CCc3nc(Nc4ccc5c(c4)OCCO5)ncc3C2)cc1", "activity change, negative = inhibition": "inactive: 8.32%"}, {"smiles": "Cc1nn2c(=O)cc(COC(=O)c3ccccc3NC(=O)C(C)Oc3ccccc3)nc2s1", "note": "(configuration not stated)", "activity change, negative = inhibition": "inactive: 4.53%"}, {"smiles": "Cc1ccc(-n2c(=O)c3ccc(C(=O)NCc4ccco4)cc3n(Cc3ccccc3C#N)c2=O)cc1", "activity change, negative = inhibition": "inactive: 1.06%"}, {"smiles": "COc1ccc(NC(=O)c2ccc3c(c2)sc2nc(-c4ccc(OC)cc4)cn23)cc1", "activity change, negative = inhibition": "inactive: 7.01%"}, {"smiles": "Cc1ccc(NC(=O)Cn2c(=O)n(Cc3ccco3)c(=O)c3ccccc32)c(C)c1", "activity change, negative = inhibition": "inactive: -0.917%"}, {"smiles": "CCOc1ccc(C2CC(=O)N(c3cccc(F)c3)C3=C2C(=O)OC3)cc1", "note": "(configuration not stated)", "activity change, negative = inhibition": "inactive: -1.62%"}, {"smiles": "Cc1ccc(-n2nc3c(=O)n(CCCC(=O)NCCc4ccccc4Cl)nc(C)c3c2C)cc1", "activity change, negative = inhibition": "inactive: -0.68%"}]}]}
